Source: PubChem BioAssay (Tox21)
Several values for one entry are separate records, joined by “and”; a condition that tells them apart may be missing. Identical values can stand only once. Inconclusive results, whose numbers are uncertain, are shown with a selection of clear calls. For some of these results: A potency beside an inconclusive call is a rough fit, not a confirmed value. The source holds several records for some structures; these can differ, active in one and inactive in another. Activity calls are given as the source filed them. Unless noted, calls follow the shape of the dose curve; as a rule, active = well fitted curve in the direction sought with a large enough effect in the repeat runs; inconclusive = weak or mixed curves; inactive = no such curve, though single readings can be large; an effect the other way counts as inactive or inconclusive.

Legend:
[1] = qHTS assay to identify small molecule agonists of the estrogen receptor beta (ER-beta) signaling pathway - cell viability counter screen (AID 1259380); also: potency is read from the fitted curve at half-maximal effect; nearly all actives have a fitted effect of over 30% in size
Outline: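 HEK293T ER-beta-UAS-bla; 2% CS-FBS; 6 hr pre-plate, 16 hr cpd at 37C/5% CO2; LiveBLAzer read first, then CellTiter-Glo 30 min RT, luminescence.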

[2] = qHTS assay to identify small molecule agonists of the estrogen receptor alpha (ER-alpha) signaling pathway in the presence of an antagonist - cell viability counter screen (AID 1259386);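 also: potency is read from the fitted curve at half-maximal effect; cells exposed to compounds for 22 h at 37 °C before the viability read; nearly all actives have a fitted effect of over 30% in size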
Outline: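 VM7Luc4E2, stripped-serum pre-culture 5 d; 24hr plating; +ICI-182,780 10.0nM final; cpds 15 conc, 22hr, 37C/5% CO2; CellTiter-Fluor added at 21hr, fluorescence 1hr later.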

[3] = biological target: Progesterone receptor (Homo sapiens) (UniProt P06401); assay: qHTS assay to identify small molecule agonists of the progesterone receptor (PR) signaling pathway (AID 1346784; calls by dose curve; also: nearly all actives have a fitted effect of over 30% in size; also: potency is read from the fitted curve at half-maximal effect; as to activation: % is scaled to controls: 0 for no effect and ±100 for the full control effect); conditions: PR-UAS-bla HEK293T, beta-lactamase FRET ratio, 16 h; activation: at 92.4 µM (top of the series) unless noted
Chain of UniProt P06401 (P06401 whole entry, looked up): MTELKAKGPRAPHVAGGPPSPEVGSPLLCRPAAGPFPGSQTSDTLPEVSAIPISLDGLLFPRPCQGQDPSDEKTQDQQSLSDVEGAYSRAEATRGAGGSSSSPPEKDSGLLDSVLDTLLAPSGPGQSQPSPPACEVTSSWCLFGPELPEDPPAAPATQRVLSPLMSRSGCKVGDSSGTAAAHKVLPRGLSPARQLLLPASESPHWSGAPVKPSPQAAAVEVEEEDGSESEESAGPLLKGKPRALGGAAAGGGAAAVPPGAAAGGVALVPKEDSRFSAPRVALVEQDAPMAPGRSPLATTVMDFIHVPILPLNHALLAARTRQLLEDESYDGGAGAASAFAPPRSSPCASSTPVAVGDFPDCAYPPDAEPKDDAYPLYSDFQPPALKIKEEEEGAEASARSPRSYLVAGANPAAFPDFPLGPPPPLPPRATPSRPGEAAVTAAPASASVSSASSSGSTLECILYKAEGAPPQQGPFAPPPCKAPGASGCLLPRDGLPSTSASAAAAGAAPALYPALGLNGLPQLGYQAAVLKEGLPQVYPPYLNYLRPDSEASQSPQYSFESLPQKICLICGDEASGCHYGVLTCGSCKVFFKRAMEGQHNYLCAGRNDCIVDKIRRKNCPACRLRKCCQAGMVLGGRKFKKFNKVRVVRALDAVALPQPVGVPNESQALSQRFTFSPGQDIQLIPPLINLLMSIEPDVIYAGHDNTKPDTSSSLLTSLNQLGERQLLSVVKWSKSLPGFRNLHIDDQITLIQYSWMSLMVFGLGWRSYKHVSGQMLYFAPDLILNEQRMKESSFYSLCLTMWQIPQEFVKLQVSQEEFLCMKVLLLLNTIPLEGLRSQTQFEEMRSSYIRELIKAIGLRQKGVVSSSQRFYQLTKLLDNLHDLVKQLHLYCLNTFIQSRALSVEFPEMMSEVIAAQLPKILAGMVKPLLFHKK
Outline: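 Seed PR-UAS-bla HEK 293T cells (2% charcoal-stripped FBS), incubate 6 hr at 37C; add compounds in DMSO, 16 hr at 37C; add LiveBLAzer B/G substrate, 2 hr RT; read fluorescence intensity.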

[4] = qHTS assay to identify small molecule antagonists of the progesterone receptor (PR) signaling pathway - cell viability counter screen (AID 1346798); also: potency is read from the fitted curve at half-maximal effect; nearly all actives have a fitted effect of over 50% in size
Outline: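 Measures cytotoxicity in parallel with the PR antagonist reporter read: HEK293T PR-UAS-bla cells get compound and R5020 for 16 hr, and remaining viable cells are quantified by CellTiter-Glo luminescence.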

[5] = qHTS assay to identify small molecule agonists of the progesterone receptor (PR) signaling pathway - cell viability counter screen (AID 1346799; calls by dose curve; also: nearly all actives have a fitted effect of over 45% in size; also: potency is read from the fitted curve at half-maximal effect)
Outline: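 Using the same plates as the PR reporter screen, HEK293T PR-UAS-bla cells received compounds for 16 hr at 37C and were then lysed with CellTiter-Glo; luminescence was read 30 min later at room temperature.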

[6] = qHTS assay to identify small molecule antagonists of the TGF-beta/Smad signaling pathway - cell viability counter screen (AID 1346824); also: potency is read from the fitted curve at half-maximal effect; nearly all actives have a fitted effect of over 50% in size
Outline: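 SBE-bla HEK 293T cells were plated overnight at 37 C, then given compounds in DMSO plus TGF-beta1 (added as 0.25 ng/mL solution) for 5 hr. After the bla read, CellTiter-Glo was added to the same wells and luminescence read after 30 min at room temperature.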

[7] = qHTS assay to identify small molecule agonists of the TGF-beta/Smad signaling pathway - cell viability counter screen (AID 1346829); also: potency is read from the fitted curve at half-maximal effect; nearly all actives have a fitted effect of over 45% in size
Outline: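 In parallel with the Smad reporter read, viability of HEK 293T cells stably carrying SBE-bla is quantified by ATP luminescence following 5 hr compound treatment.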

[8] = qHTS assay to identify small molecule agonists of the TGF-beta/Smad signaling pathway (AID 1346859; active = well fitted activation curve with a large enough effect in the signal ratio in the repeat runs, not every such curve was filed as active; inconclusive = weak or mixed curves; the % refers to the signal ratio; also: potency is read from the fitted curve at half-maximal effect); conditions: SBE-bla HEK293T, TGF-beta/Smad beta-lactamase reporter, 5 h; activation: at 76.8 µM (top of the series)
Outline: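 Beta-lactamase reporter activity downstream of Smad binding elements was measured in stably transfected HEK 293T cells; compounds were incubated for 5 hr, substrate for 2 hr at room temperature.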

[9] = Human pregnane X receptor (PXR) small molecule agonists, qHTS cell viability counter screen (AID 1346977); also: potency is read from the fitted curve at half-maximal effect; nearly all actives have a fitted effect of over 50% in size
Outline: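 After a 5hr pre-incubation, PXR-Luc HepG2 cells received compounds plus positive control in DMSO and were kept 24hr at 37C. Cell viability was quantified by fluorescence from CellTiter-Fluor added for the final hour.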

[10] = Caspase-3/7 induction in CHO-K1 cells by small molecules, qHTS cell viability counter screen (AID 1346979); also: potency is read from the fitted curve at half-maximal effect; nearly all actives have a fitted effect of over 35% in size
Outline: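 Multiplexed with Caspase-Glo 3/7 in CHO-K1 cells, this counter screen added CellTiter-Fluor after 16hr of compound exposure and recorded fluorescence 1hr later.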

[11] = biological target: Thyrotropin receptor (Homo sapiens) (UniProt P16473); assay: qHTS assay to identify small molecule antagonists of the thyroid stimulating hormone receptor (TSHR) signaling pathway (AID 1259385; calls by dose curve; also: nearly all actives have a fitted effect of over 20% in size; also: potency is read from the fitted curve at half-maximal effect; as to activity change, negative = inhibition: % is scaled to controls: 0 for no effect and ±100 for the full control effect); conditions: TSHR-HEK293 cAMP HTRF, TSH-stimulated antagonist mode; activity change, negative = inhibition: at 92.4 µM (top of the series) unless noted
Chain of UniProt P16473 (P16473 whole entry, looked up): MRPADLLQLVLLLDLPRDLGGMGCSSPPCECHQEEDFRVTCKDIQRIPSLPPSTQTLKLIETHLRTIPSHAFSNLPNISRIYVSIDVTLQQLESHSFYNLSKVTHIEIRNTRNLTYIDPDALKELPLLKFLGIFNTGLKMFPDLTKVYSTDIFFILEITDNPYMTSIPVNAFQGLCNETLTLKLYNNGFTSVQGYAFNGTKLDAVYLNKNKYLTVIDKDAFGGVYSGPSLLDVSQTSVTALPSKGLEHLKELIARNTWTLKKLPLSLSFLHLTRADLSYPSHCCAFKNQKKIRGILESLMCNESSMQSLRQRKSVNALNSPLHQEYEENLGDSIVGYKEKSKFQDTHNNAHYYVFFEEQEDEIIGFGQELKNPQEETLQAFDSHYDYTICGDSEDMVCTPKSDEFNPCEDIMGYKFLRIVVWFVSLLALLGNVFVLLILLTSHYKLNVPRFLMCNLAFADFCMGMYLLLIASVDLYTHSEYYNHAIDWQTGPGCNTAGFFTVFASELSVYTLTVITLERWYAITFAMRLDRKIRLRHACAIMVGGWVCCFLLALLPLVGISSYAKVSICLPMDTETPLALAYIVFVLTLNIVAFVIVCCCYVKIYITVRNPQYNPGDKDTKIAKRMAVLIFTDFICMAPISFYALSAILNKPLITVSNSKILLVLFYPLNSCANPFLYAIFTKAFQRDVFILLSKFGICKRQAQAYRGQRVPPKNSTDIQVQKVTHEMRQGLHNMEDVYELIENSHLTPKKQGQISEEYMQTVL
Outline: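 TSHR-HEK293 cells were plated and held 18 h at 37C/5% CO2, then given compound plus Ro20-1724 and stimulated with TSH at 1.5 ng/mL final. After 30 min at room temperature, cAMP was detected with cAMP-d2/anti-cAMP-cryptate (1 h) by fluorescence.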

[12] = biological target: Progesterone receptor (Homo sapiens) (UniProt P06401); assay: qHTS assay to identify small molecule antagonists of the progesterone receptor (PR) signaling pathway (AID 1346795; active = well fitted inhibition curve with a large enough effect in the signal ratio in the repeat runs, not every such curve was filed as active; inconclusive = weak or mixed curves; the % refers to the signal ratio; also: potency is read from the fitted curve at half-maximal effect; as to activity change, negative = inhibition: % is scaled to controls: 0 for no effect and ±100 for the full control effect); conditions: PR-UAS-bla HEK293T, beta-lactamase FRET ratio, 16 h; activity change, negative = inhibition: at 92.4 µM (top of the series) unless noted
Outline: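 Screening used a GripTite HEK293T line with PR-responsive UAS-beta-lactamase. Cells were challenged with compound in the presence of 1 nM R5020 final for 16 hr at 37C; B/G FRET substrate, 2 hr room temperature, fluorescence.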

[13] = biological target: Thyrotropin-releasing hormone receptor (Homo sapiens) (UniProt P34981); assay: qHTS assay to identify small molecule antagonists of the thyrotropin-releasing hormone receptor (TRHR) signaling pathway (AID 1346877; active = well fitted inhibition curve with a large enough effect in the repeat runs, not every such curve was filed as active; inconclusive = weak or mixed curves; also: potency is read from the fitted curve at half-maximal effect)
Chain of UniProt P34981 (P34981 whole entry, looked up): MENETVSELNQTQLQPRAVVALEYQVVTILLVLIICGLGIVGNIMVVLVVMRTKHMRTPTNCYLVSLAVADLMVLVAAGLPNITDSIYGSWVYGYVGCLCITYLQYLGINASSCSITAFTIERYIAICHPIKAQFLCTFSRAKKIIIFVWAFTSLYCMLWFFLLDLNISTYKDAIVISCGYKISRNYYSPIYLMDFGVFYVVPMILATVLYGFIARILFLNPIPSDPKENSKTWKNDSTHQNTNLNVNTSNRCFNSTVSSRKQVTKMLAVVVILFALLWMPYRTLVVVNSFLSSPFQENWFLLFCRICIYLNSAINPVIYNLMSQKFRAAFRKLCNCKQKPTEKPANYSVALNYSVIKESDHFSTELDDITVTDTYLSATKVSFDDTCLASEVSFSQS
Outline: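 Intracellular calcium fluorescence, read kinetically every second over 3 min, reports TRH-evoked signalling in HEK293 cells carrying TRHR. Test compounds were added 5 min ahead of a 1 nM TRH challenge.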

[14] = biological target: Thyrotropin-releasing hormone receptor (Homo sapiens) (UniProt P34981); assay: qHTS assay to identify small molecule agonists of the thyrotropin-releasing hormone receptor (TRHR) signaling pathway (AID 1346891; calls by dose curve; also: potency is read from the fitted curve at half-maximal effect)
Outline: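 Overnight-plated (18 h, 37 °C, 5% CO2) TRHR-Hek293 cells; 2 h calcium dye at 37 °C; compound in DMSO; 3-min kinetic fluorescence read.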

[15] = qHTS assay to identify small molecule agonists or antagonists of the thyroid stimulating hormone receptor (TSHR) signaling pathway - wild type cell line counter screen (AID 1259384; calls by dose curve; also: % is scaled to controls: 0 for no effect and ±100 for the full control effect); conditions: HEK293 wild type, cAMP HTRF counter-screen; cAMP activity change: at 92.4 µM (top of the series), stronger effect = higher value unless noted
Outline: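 Wild-type HEK293 cells were plated 18 h at 37 C/5% CO2, pin-dosed with compound plus Ro20-1724 medium, held 30 min at room temperature, then given cAMP-d2 and anti-cAMP-cryptate; fluorescence was read after 1 h. Fifteen concentrations, triplicate.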

[16] = qHTS assay to identify small molecule antagonists of the TGF-beta/Smad signaling pathway (AID 1346924; active = well fitted inhibition curve with a large enough effect in the signal ratio in the repeat runs, not every such curve was filed as active; inconclusive = weak or mixed curves; the % refers to the signal ratio; also: potency is read from the fitted curve at half-maximal effect); conditions: SBE-bla HEK293T, TGF-beta/Smad reporter, beta-lactamase ratio; activity, negative = inhibition: at 76.8 µM (top of the series) unless noted
Outline: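 SBE-bla HEK 293T cells were plated overnight, then received compound in DMSO plus TGF-beta1 (added as a 0.25 ng/mL solution) and were incubated 5 h at 37 C. Beta-lactamase reporter activity was read after 2 h at room temperature with LiveBLAzer B/G FRET substrate (ex 405, em 460/530 nm).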
Tags tell the direction and shape of the fitted curve or compound fluorescence and quenching.

Row | SMILES | Potency [1] | Potency [2] | Potency [3] | activation [3] | Potency [4] | Potency [5] | Potency [6] | Potency [7] | Potency [8] | Potency [9] | Potency [10] | Potency [11] | Potency [12] | Potency [13] | Potency [14] | Potency [15] | Potency [16] | activity change, negative = inhibition [12]
1 | [Cd+2].[Cl-].[Cl-] | active: 69.1 µM and active: 68.6 µM | active: 61.6 µM and active: 54.5 µM | inconclusive: 68.6 µM [cytotoxic, single point] | inconclusive: -4.8% | active: 4.36 µM and active: 2.73 µM | active: 13.8 µM and active: 6.11 µM | inconclusive: 55.4 µM [cytotoxic, partial curve, poor fit] and inconclusive: 49 µM [cytotoxic, partial curve] | inconclusive: 62.2 µM [cytotoxic, partial curve, poor fit] | inconclusive: 62.2 µM [rising, partial curve, poor fit] | active: 794 nM and active: 344 nM | active: 1.23 µM and active: 611 nM | – | – | – | – | – | – | –
2 | N#Cc1sc2c(=O)c3ccccc3c(=O)c=2sc1C#N | active: 21.7 µM | – | inconclusive: 21.7 µM [cytotoxic, full curve] | – | active: 30.6 µM | active: 30.6 µM | active: 49 µM | active: 38.9 µM | inconclusive: 49 µM [rising, single point] | – | active: 21.7 µM | inconclusive: 30.6 µM | inconclusive: 48.6 µM [falling, partial curve] | inconclusive: 30.1 µM [inhibitor, partial curve] | – | – | – | –
3 | Cc1ccc([N+](=O)[O-])[c]2c1[O][Hg]2 | active: 4.22 µM | active: 29.8 µM | inconclusive: 5.31 µM [falling, full curve] | – | active: 4.22 µM | active: 5.31 µM | active: 19 µM | – | – | active: 6.68 µM | – | active: 21.1 µM | inconclusive: 15 µM [falling, partial curve] | inconclusive: 14.7 µM [inhibitor] | inconclusive: 16.9 µM [activator, partial curve, poor fit] | – | – | –
4 | Brc1ccc(Oc2ccc(Br)cc2Br)c(Br)c1 | inconclusive: 54.5 µM [cytotoxic, partial curve] | – | – | – | – | inconclusive: 77 µM [cytotoxic, partial curve, poor fit] | – | – | – | – | inconclusive: 77 µM [cytotoxic, single point] | active: 61.2 µM | inconclusive: 2.73 µM [falling, full curve] | – | – | inactive | – | –
5 | COc1ccc(C(c2ccc(OC)cc2)C(Cl)(Cl)Cl)cc1 | inconclusive: 38.3 µM [cytotoxic, partial curve, poor fit] | inconclusive: 76.5 µM [cytotoxic] | inconclusive: 5.11 µM | – | inconclusive: 19.2 µM | inconclusive: 19.2 µM | – | – | – | inconclusive: 68.2 µM [cytotoxic] | active: 60.8 µM | inconclusive: 27.1 µM | inconclusive: 9.36 µM [falling, full curve] | – | – | – | inconclusive: 38.7 µM [falling, partial curve, poor fit] | –
6 | C[C@@H]1C[C@@H]([C@H](O)CC2CC(=O)NC(=O)C2)C(=O)[C@@H](C)C1 | inconclusive: 68.2 nM [cytotoxic, full curve, poor fit] and inconclusive: 86.3 nM [cytotoxic, full curve] and inconclusive: 33.5 nM [cytotoxic, full curve] | inconclusive: 9.69 µM [cytotoxic, partial curve, poor fit] | inconclusive: 29.8 µM [falling, partial curve, poor fit] | inconclusive: -2.2% | – | inactive and inconclusive: 43.3 nM [cytotoxic, full curve, poor fit] | – | – | – | – | active: 24.2 nM and active: 68.6 nM and active: 188 nM | inactive | inconclusive: 6.86 µM [falling, full curve] and inconclusive: 3.76 µM [falling, full curve] | – | – | – | – | inconclusive: -38.3%
